# Data from PubChem BioAssay AID588855 (National Center for Advancing Translational Sciences (NCATS), 2011).
# Out of some 410,000 compounds screened, about 5,000 (1.2%) were called active. Inconclusive results, whose numbers are uncertain, are shown with a selection of clear calls. Calls come from the whole dose curve; as a rule, active = well fitted inhibition curve with a large enough effect; inconclusive = small, poorly fitted or top-dose-only effect; inactive = no such curve, though single readings can be large or run the other way. Potencies of inconclusive entries are doubtful fits and often do not repeat.
# Assay: qHTS for Inhibitors of TGF-b; note: nearly all actives have a fitted effect of over 65% in size
# Details: HepG2 CAGA-GFP TGF-b/SMAD3 reporter, GFP fluorescence, 18 h, TGF-beta stimulated, 500 pg/mL final; series mostly up to 46.1 µM; activity, negative = inhibition: at the top concentration
# How it was run: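 HEPG2 CAGA-GFP, 1000 cells/well; 2 h settle, 37 C; cpd via pin tool; TGF-b 500 pg/mL final; 18 h, 37 C; GFP imaging ex488/em500-530; %Activity normalised to -TGF-b and +DMSO controls; CRC fit, curve class.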
# % is set by controls: 0 for no effect and ±100 for the full control effect; potency is the fitted concentration of half-maximal effect; tags give direction and shape of the fitted curve.
Structure (SMILES),"activity, negative = inhibition",Potency
CC(=O)Nc1ccc(C(=O)N2CCCCC2c2cc(C(=O)NCc3cccnc3)no2)cc1 (configuration not stated),inactive: -0.601%,–
Cc1cc(C)c2nc(C)cc(Nc3ccc(C(=O)NCCO)cc3)c2c1,–,"inconclusive: 35.5 µM [inhibitor, single point]"
Cc1ccc(Cn2c(=N)n(CC(=O)c3ccccc3)c3ccccc32)cc1,–,"inconclusive: 35.5 µM [inhibitor, single point]"
O=C(CC(Cl)(Cl)Cl)N1CCN(/[N+]([O-])=N/Oc2ccc([N+](=O)[O-])cc2[N+](=O)[O-])CC1,–,"inconclusive: 17.8 µM [inhibitor, single point]"
COc1cccc(CNc2nc3cc(-c4ccccc4)sc3c(=O)n2C)c1,–,"inconclusive: 25.1 µM [inhibitor, single point]"
C(=C\c1ccccc1)/CN1CCN(c2ncnc3c2oc2ccccc23)CC1,–,"inconclusive: 11.2 µM [inhibitor, partial curve, poor fit]"
COc1ccc(CCn2c(=N)c(C(=O)NCC3CCCO3)cc3c(=O)n4ccccc4nc32)cc1 (configuration not stated),inactive: 5.24%,–
O=C1N(C2CCCC2)C[C@@H]2C[C@@H](c3cn[nH]c3-c3ccc(Cl)cc3)N3CCC[C@@]123,–,"inconclusive: 35.5 µM [inhibitor, single point]"
CCN1C(C(=O)c2ccccc2)=C(OC(=O)c2ccc(OC)cc2)c2ccccc2S1(=O)=O,–,"inconclusive: 10 µM [inhibitor, partial curve]"
CCN(C(=O)CN1C(=O)COc2ccc(S(=O)(=O)N3CCCCCC3)cc21)c1cccc(C)c1,–,"inconclusive: 11.2 µM [inhibitor, single point]"
O=c1cc(-c2ccc(Cl)cc2)oc(=O)[nH]1,inactive: -5.49%,–
CC(NC(=O)C(NS(=O)(=O)c1cccc2nsnc12)C(C)C)c1ccccc1 (configuration not stated),inactive: -0.927%,–
COC(CNC(=O)c1ccc2c(c1)ncn2-c1cccc(F)c1)OC,–,"inconclusive: 35.5 µM [inhibitor, single point]"
O=C(c1ccc(S(=O)(=O)c2cccc(Cl)c2)c([N+](=O)[O-])c1)N1CCN(Cc2ccccc2)CC1,–,"inconclusive: 35.5 µM [inhibitor, single point]"
Cc1ccccc1C(=O)Nc1nc2nc(-c3ccccc3)cc(=O)n2[nH]1,–,"inconclusive: 17.8 µM [inhibitor, single point]"
Cc1ccc(C)c(S(=O)(=O)N2CCN(C(=O)CCC(=O)NCc3ccc(Cl)cc3Cl)CC2)c1,–,"inconclusive: 35.5 µM [inhibitor, single point]"
Cc1ccc(-n2c(=O)c3c4c(sc3n(Cc3ccccc3C)c2=O)CCC4)cc1C,inactive: -9.82%,–
Cc1ccc(C(C)C)c(OCC(=O)Nc2ccccc2N2CCN(C)CC2)c1,–,"inconclusive: 35.5 µM [inhibitor, single point]"
CN1CCC(N(C)C(=O)c2ccccc2Nc2ccc(SC(F)F)cc2)CC1,inactive: 0.719%,–
Cc1cccn2c(=O)c3cc(C(=O)NC4CCCC4)c(=N)n(CCCN4CCOCC4)c3nc12,inactive: 0.201%,–
CC1S/C(=N/N=C/c2ccco2)NC1=O (configuration not stated),–,"inconclusive: 35.5 µM [inhibitor, single point]"

Structure (SMILES),"activity, negative = inhibition",Potency
O=C(NCc1ccccn1)c1ccc(CNS(=O)(=O)c2cccc(C(F)(F)F)c2)cc1,–,"inconclusive: 6.31 µM [inhibitor, single point]"
Cc1cc(C)c(/C=C/c2onc(C)c2S(=O)(=O)N2CCC(C(=O)N(C)Cc3ccccc3)CC2)c(C)c1,–,"inconclusive: 1.41 µM [inhibitor, partial curve]"
CC1=C(C(=O)OCc2ccccc2)C(c2ccccc2Cl)NC(=O)N1C (configuration not stated),–,"inconclusive: 0.501 µM [inhibitor, partial curve, poor fit]"
COCCN(C(=O)COC(=O)CCC1CCCCC1)c1c(N)n(Cc2ccccc2)c(=O)[nH]c1=O,inactive: -4.67%,–
O=C(CCN1CCc2ccccc2C(O)(c2ccccc2)C1)c1ccc2c(c1)OCCO2 (configuration not stated),–,"inconclusive: 35.5 µM [inhibitor, single point]"
CC1(C)Cc2c(C#N)c(SCc3ccccc3)nc(N3CCOCC3)c2CO1,–,"inconclusive: 3.55 µM [inhibitor, partial curve, poor fit]"
Cc1cccc(C)c1OCc1cc(C(=O)N2CCN(c3ccc(F)cc3)CC2)no1,–,"inconclusive: 14.1 µM [inhibitor, single point]"
CCOc1ccc(CNC(=O)C2CCN(S(=O)(=O)c3cn(C)cn3)CC2)cc1,inactive: 16.5%,–
COC(=O)CSc1nnc(-c2sc3cc(OC)ccc3c2Cl)n1C,inactive: 14.6%,–
CCCc1[nH][nH]c(=O)c1C(c1cccc(Cl)c1)C(C#N)C#N (configuration not stated),inactive: -4.64%,–
O=C(CN1C(=O)CCn2nc(-c3ccccc3)cc21)NCc1ccc(F)cc1,–,"inconclusive: 35.5 µM [inhibitor, single point]"
CC(C)(C)OC(=O)N1CCC(C(=O)Nc2cccc(C(=O)NCc3ccccc3)c2)CC1,inactive: 0.961%,–
CC(C)(C)c1ccc(S(=O)(=O)NCCOCC(F)(F)C(F)F)cc1,–,"inconclusive: 35.5 µM [inhibitor, partial curve, poor fit]"
CC1(C)C2CCC1(CS(=O)(=O)Nc1ccc(S(=O)(=O)N3CCCC3)cc1)C(=O)C2 (configuration not stated),–,"inconclusive: 11.2 µM [inhibitor, partial curve, poor fit]"
COc1ccc(Nc2nnc(SCc3cn4c(C)cccc4n3)s2)cc1,–,"inconclusive: 22.4 µM [inhibitor, single point]"
CC(C)OCCOc1ccc2oc(-c3ccco3)cc(=O)c2c1,inactive: 2.31%,–
COCCn1c(C)cc(C(=O)CSc2cc(C)c3ccc(OC)cc3n2)c1C,–,"inconclusive: 0.794 µM [inhibitor, full curve, poor fit]"
O=C(Nc1ccc(-n2nncc2-c2ccccc2)cc1)c1cccc(F)c1,inactive: 16.6%,–
CC(=O)NC12CC3CC(C1)CC(C(=O)N1CCN(S(=O)(=O)c4ccccc4C#N)CC1)(C3)C2,inactive: 5.74%,–
Cc1ccccc1OCC(=O)Nc1ccccc1C(=O)OCc1cc(=O)n2ccsc2n1,inactive: 22.1%,–
Cc1nn(CCCC(=O)NCCc2ccc(Cl)cc2)c(=O)c2c1sc1ccccc12,inactive: -6.55%,–
